Data reported in patent US8933202B2, “AXL antibodies” (U3 Pharma GmbH, priority 2007, dated 2015).

B1: 11D5: antagonistic rat anti-AXL monoclonal antibody, rat IgG2a (antibody)
heavy: EVQLQESGPGLVKPSQSLSLTCSVTGYSITSNYWGWIRKFPGNKMEWIGHITNSGNTTYNPSLKSRISISRDTSRNQFFLQLNSVTTEDTATYYCAKGAFDYWGQGVMVTVSS[left out - human IgG1 constant region]
light: DIQMTQSPSSMSTSLGDRVTITCRASQDIGNYLSWFQQKVGKSPRRMIYGAIKLAVGVPSRFSGSRSGSDYSLTISSLESEDMAIYYCLQYIQFPLTFGSGTKLELKRTVAAPSVFIFPPSDEQLKSGTASVVCLLNNFYPREAKVQWKVDNALQSGNSQESVTEQDSKDSTYSLSSTLTLSKADYEKHKVYACEVTHQGLSSPVTKSFNRGEC
modifications: 11D5 HC gamma1; 11D5 LC kappa
notes: antagonistic rat anti-AXL monoclonal antibody, rat IgG2a
B2: ch11B7: chimeric anti-AXL antibody, derivative of rat 11B7 (antibody)
heavy: EVQLQESGPGLVKPSQSLSLTCSVTGYSITSNYWGWIRKFPGDKMEWMGYITYSGSTSYNPSLKSRISITRDTSKNQFFLQLNSVTSEDTATYYCAITTFYYWGQGVMVTVSS[left out - human IgG1 constant region]
light: DIQMTQAPSSLPASLGDRVTITCRASQDIGNYLRWFQQKPGKSPRLMISGATNLAAGVPSRFSGSRSGSDYSLTISSLESEDMADYYCLQSKESPWTFGGGTKLELKRTVAAPSVFIFPPSDEQLKSGTASVVCLLNNFYPREAKVQWKVDNALQSGNSQESVTEQDSKDSTYSLSSTLTLSKADYEKHKVYACEVTHQGLSSPVTKSFNRGEC

Experiments:
[1] = tested on: p42/p44 MAP-Kinase; assay: p42/p44 MAP-Kinase phosphorylation ELISA; type: cell-based, human; conditions: 10 μg/ml antibody, 400 ng/ml Gas6; CaSki cervical cancer cells
Description: Next, ELISA experiments were performed in order to investigate whether the rat anti-AXL antibodies of the invention are able to block ligand Gas6-mediated activation of p42/p44 MAP-Kinase. Gas6-mediated p42/p44 MAP-Kinase activation was detected by increased protein (Thr202/Tyr204) phosphorylation. In brief, on the first day, 2×10^4 cells per well were seeded in flat-bottom 96 well plates. The next day, normal growth medium was replaced by serum-free medium to starve cells for 36 h. […] Medium was flicked out and cells were fixed with 4% formaldehyde in PBS (pH 7.5) for 30 min at room temperature. Formaldehyde solution was removed and cells were washed twice with wash buffer (PBS, 0.1% Tween 20). Cells were quenched with 1% H2O2, 0.1% NaN3 in wash buffer and incubated for 20 min at room temperature. Afterwards, the quenching solution was removed, and cells were washed twice with wash buffer and blocked with PBS, 0.5% BSA for 4 h at 4° C. Anti-phospho-p42/p44 MAP Kinase (Thr202/Tyr204) primary antibody (polyclonal rabbit; Cell Signaling #9101) diluted 1:500 in PBS, 0.5% BSA, 5 mM EDTA was added over night at 4° C. On day 4, the antibody solution was removed and the plate was washed 3× with wash buffer. […] Tetramethylbenzidine (TMB, Calbiochem) was added and monitored at 620 nm.

[2] = tested on: NIH3T3-AXL cl.7 fibroblasts; assay: AlamarBlue Gas6-induced proliferation assay; type: cell-based; conditions: 20 μg/ml antibody, with or without 400 ng/ml Gas6, 96 h
Description: In vitro experiments were conducted in order to determine the ability of the rat anti-AXL antibodies of the invention to inhibit Gas6-induced cell proliferation. For this purpose, 2,500 NIH3T3-AXL cl.7 fibroblasts per well were seeded in FCS-containing medium on 96 well plates over night. […] Cells were treated with or without 400 ng/ml mouse Gas6 (R&D Systems) by adding ligand directly to the antibody solution, and were then left to grow for 96 h. AlamarBlue™ (BIOSOURCE #DAL1100) was added and incubated at 37° C. in the dark. Absorbance was measured at 590 nm every 30 min. The data were taken 4 h after addition of AlamarBlue™.

[3] = tested on: HUVEC spheroids; assay: Spheroid-based cellular angiogenesis assay; type: cell-based, human; conditions: 25 ng/ml VEGF-A, 24 h
Description: AXL is a key regulator of multiple angiogenic behaviors including endothelial cell migration, proliferation, and tube formation in vitro (Holland et al., Cancer Res: 65, 9294-9303, 2005). […] The experiments were pursued in modification of the originally published protocol (Korff and Augustin: J Cell Sci 112: 3249-58, 1999). In brief, spheroids were prepared as described (Korff and Augustin: J Cell Biol 143: 1341-52, 1998) by pipetting 500 human umbilical vein endothelial cells (HUVEC) in a hanging drop on plastic dishes to allow over night spheroid aggregation. 50 HUVEC spheroids were then seeded in 0.9 ml of a collagen solution (2 mg/ml) and pipetted into individual wells of a 24 well plate to allow polymerization. […] Plates were incubated at 37° C. for 24 hours and fixed by adding 4% paraformaldehyde. Sprouting intensity of HUVEC spheroids was quantified by an image analysis system that determines the cumulative sprout length per spheroid using an inverted microscope and the digital imaging software Analysis 3.2 (Soft imaging system, Munster, Germany). The mean of the cumulative sprout length of 10 randomly selected spheroids was analyzed as an individual data point.

[4] = tested on: p42/p44 MAP-Kinase; assay: p42/p44 MAP-Kinase phosphorylation ELISA, rat versus chimeric antibody; type: cell-based, human; conditions: 50 ng/ml to 10 μg/ml antibody, 400 ng/ml Gas6; CaSki
Description: To additionally verify whether the rat anti-Axl antibodies of the invention and the corresponding chimeric anti-Axl antibodies of the invention were also able to inhibit Gash-induced activation of p42/p44 MAP-Kinase in CaSki cervical cancer cells to similar extent, ELISA experiments were performed. Here, Gas6-induced p42/p44 MAP-Kinase activation was detected by increased protein (Thr202/Tyr204) phosphorylation. In brief, on the first day, 2×10^4 cells per well were seeded in flat-bottom 96 well plates. The next day, normal growth medium was replaced by serum-free medium to starve cells for 24 h. Thereafter, cells were pre-incubated with 50 ng/ml, 100 ng/ml, 300 ng/ml, 750 ng/ml, 1 μg/ml, and 10 μg/ml of rat anti-Axl antibody 11B7 or chimeric anti-Axl antibody ch11B7 for 1 h at 37° C. and then treated with or without 400 ng/ml Gas6 (R&D Systems) for 10 min at 37° C. Medium was flicked out and cells were fixed with 4% formaldehyde in PBS (pH 7.5) for 30 min at room temperature. Formaldehyde solution was removed and cells were washed twice with wash buffer (PBS, 0.1% Tween 20). Cells were quenched with 1% H2O2, 0.1% NaN3 in wash buffer and incubated for 20 min at room temperature. […] Tetramethylbenzidine (TMB, Calbiochem) was added and monitored at 620 nm.

Molecule | ligand-mediated p42/p44 MAP-Kinase activation (phosphorylation) [1] | cell proliferation [2] | HUVEC sprouting at the highest antibody concentration [3] | Gas6-induced p42/p44 MAP-Kinase activation, concentration-dependent [4]
B1 | able to reduce ligand-mediated p42/p44 MAP-Kinase activation | blocked Gas6-induced proliferation | not as effective | 
B2 |  |  |  | able to block Gas6-induced activation of p42/p44 MAP-Kinase in CaSki cervical cancer cells to similar extent
